According to publication PMC12820563:
The list shows a part of the results. The list includes weakly bound sequences.

What follows are sequences tested against T1, MBP-FoxP3dN (UniProt Q99JB6) (assay: PD-seq (MBP pull-down with sequencing)). Details: 20 mM Tris-HCl pH 7.5, 100 mM NaCl, 1.5 mM MgCl2, 0.4 uM protein, 0.1 uM dsDNA library, 30 min, room temperature, amylose pull-down; high values mean tight binding; double strand, one strand shown.
T1 sequence: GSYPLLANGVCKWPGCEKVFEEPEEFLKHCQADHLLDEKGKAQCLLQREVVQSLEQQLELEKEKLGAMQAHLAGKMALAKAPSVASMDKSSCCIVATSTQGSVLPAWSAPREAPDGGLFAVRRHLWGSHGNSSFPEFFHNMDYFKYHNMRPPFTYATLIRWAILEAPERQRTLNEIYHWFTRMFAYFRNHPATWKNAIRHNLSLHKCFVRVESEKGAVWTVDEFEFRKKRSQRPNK

Row | Sequence | binding signal (RPM ratio (pull-down/input))
1 | GATGATTGTTCTCCCAGCTGATGAATTAAGAGATTCGAGTAAACAAATTTTCCTAATCTTTCTGTTCAAGCGCCATCTAC | 0.396
2 | GATGATTGTTCTCCCAGCTGATGAATTCATCCCATCGAGTAAACAAATTTTCCTAATCTTTCTGTTCAAGCGCCATCTAC | 0.384
3 | GATGATTGTTCTCCCAGCTGATGAATTCATCATATCGAGTAAACAAATTTTCCTAATCTTTCTGTTCAAGCGCCATCTAC | 0.849
4 | GATGATTGTTCTCCCAGCTGATGAATTCAGCACCTCGAGTAAACAAATTTTCCTAATCTTTCTGTTCAAGCGCCATCTAC | 1.04
5 | GATGATTGTTCTCCCAGCTGATGAATTCTTACTTTCGAGTAAACAAATTTTCCTAATCTTTCTGTTCAAGCGCCATCTAC | 0.309
6 | GATGATTGTTCTCCCAGCTGATGAATTGCTTGTGTCGAGTAAACAAATTTTCCTAATCTTTCTGTTCAAGCGCCATCTAC | 2.01
7 | GATGATTGTTCTCCCAGCTGATGAATTGTGTCACTCGAGTAAACAAATTTTCCTAATCTTTCTGTTCAAGCGCCATCTAC | 4.29
8 | GATGATTGTTCTCCCAGCTGATGAATTAATGCGGTCGAGTAAACAAATTTTCCTAATCTTTCTGTTCAAGCGCCATCTAC | 1.56
9 | GATGATTGTTCTCCCAGCTGATGAATTCGAGAGGTCGAGTAAACAAATTTTCCTAATCTTTCTGTTCAAGCGCCATCTAC | 0.213
10 | GATGATTGTTCTCCCAGCTGATGAATTGTAGCGTTCGAGTAAACAAATTTTCCTAATCTTTCTGTTCAAGCGCCATCTAC | 1.71
11 | GATGATTGTTCTCCCAGCTGATGAATTACTATGCTCGAGTAAACAAATTTTCCTAATCTTTCTGTTCAAGCGCCATCTAC | 0.509
12 | GATGATTGTTCTCCCAGCTGATGAATTAAAATGATCGAGTAAACAAATTTTCCTAATCTTTCTGTTCAAGCGCCATCTAC | 0.255
13 | GATGATTGTTCTCCCAGCTGATGAATTTTTTCCTTCGAGTAAACAAATTTTCCTAATCTTTCTGTTCAAGCGCCATCTAC | 0.173
14 | GATGATTGTTCTCCCAGCTGATGAATTTTGAACCTCGAGTAAACAAATTTTCCTAATCTTTCTGTTCAAGCGCCATCTAC | 0.382
15 | GATGATTGTTCTCCCAGCTGATGAATTCTAAATATCGAGTAAACAAATTTTCCTAATCTTTCTGTTCAAGCGCCATCTAC | 0.765
16 | GATGATTGTTCTCCCAGCTGATGAATTTGGTTCGTCGAGTAAACAAATTTTCCTAATCTTTCTGTTCAAGCGCCATCTAC | 1.3
17 | GATGATTGTTCTCCCAGCTGATGAATTATTTCATTCGAGTAAACAAATTTTCCTAATCTTTCTGTTCAAGCGCCATCTAC | 0.381
18 | GATGATTGTTCTCCCAGCTGATGAATTGTCCTAATCGAGTAAACAAATTTTCCTAATCTTTCTGTTCAAGCGCCATCTAC | 0.391
19 | GATGATTGTTCTCCCAGCTGATGAATTTTCGTACTCGAGTAAACAAATTTTCCTAATCTTTCTGTTCAAGCGCCATCTAC | 0.417
20 | GATGATTGTTCTCCCAGCTGATGAATTCATCGCCTCGAGTAAACAAATTTTCCTAATCTTTCTGTTCAAGCGCCATCTAC | 0.584

Row | Sequence | binding signal (RPM ratio (pull-down/input))
21 | GATGATTGTTCTCCCAGCTGATGAATTCTCCGCGTCGAGTAAACAAATTTTCCTAATCTTTCTGTTCAAGCGCCATCTAC | 0.372
22 | GATGATTGTTCTCCCAGCTGATGAATTAGGAGACTCGAGTAAACAAATTTTCCTAATCTTTCTGTTCAAGCGCCATCTAC | 0.378
23 | GATGATTGTTCTCCCAGCTGATGAATTGACATAATCGAGTAAACAAATTTTCCTAATCTTTCTGTTCAAGCGCCATCTAC | 0.677
24 | GATGATTGTTCTCCCAGCTGATGAATTATGCCCATCGAGTAAACAAATTTTCCTAATCTTTCTGTTCAAGCGCCATCTAC | 1.9
25 | GATGATTGTTCTCCCAGCTGATGAATTACTTGCGTCGAGTAAACAAATTTTCCTAATCTTTCTGTTCAAGCGCCATCTAC | 0.618
26 | GATGATTGTTCTCCCAGCTGATGAATTAGCGCGTTCGAGTAAACAAATTTTCCTAATCTTTCTGTTCAAGCGCCATCTAC | 1.62
27 | GATGATTGTTCTCCCAGCTGATGAATTAAAACACTCGAGTAAACAAATTTTCCTAATCTTTCTGTTCAAGCGCCATCTAC | 0.776
28 | GATGATTGTTCTCCCAGCTGATGAATTCCACAGATCGAGTAAACAAATTTTCCTAATCTTTCTGTTCAAGCGCCATCTAC | 0.212
29 | GATGATTGTTCTCCCAGCTGATGAATTATTATCATCGAGTAAACAAATTTTCCTAATCTTTCTGTTCAAGCGCCATCTAC | 1.13
30 | GATGATTGTTCTCCCAGCTGATGAATTAGACAATTCGAGTAAACAAATTTTCCTAATCTTTCTGTTCAAGCGCCATCTAC | 0.526
31 | GATGATTGTTCTCCCAGCTGATGAATTGTCACGATCGAGTAAACAAATTTTCCTAATCTTTCTGTTCAAGCGCCATCTAC | 0.439
32 | GATGATTGTTCTCCCAGCTGATGAATTGGTAGACTCGAGTAAACAAATTTTCCTAATCTTTCTGTTCAAGCGCCATCTAC | 0.482
33 | GATGATTGTTCTCCCAGCTGATGAATTAGAGGCGTCGAGTAAACAAATTTTCCTAATCTTTCTGTTCAAGCGCCATCTAC | 1.19
34 | GATGATTGTTCTCCCAGCTGATGAATTCATCATTTCGAGTAAACAAATTTTCCTAATCTTTCTGTTCAAGCGCCATCTAC | 1.25
35 | GATGATTGTTCTCCCAGCTGATGAATTATGGATATCGAGTAAACAAATTTTCCTAATCTTTCTGTTCAAGCGCCATCTAC | 0.65
36 | GATGATTGTTCTCCCAGCTGATGAATTGTCTTTGTCGAGTAAACAAATTTTCCTAATCTTTCTGTTCAAGCGCCATCTAC | 1.12
37 | GATGATTGTTCTCCCAGCTGATGAATTTCTCCCATCGAGTAAACAAATTTTCCTAATCTTTCTGTTCAAGCGCCATCTAC | 0.254
38 | GATGATTGTTCTCCCAGCTGATGAATTTTTTTACTCGAGTAAACAAATTTTCCTAATCTTTCTGTTCAAGCGCCATCTAC | 0.35
39 | GATGATTGTTCTCCCAGCTGATGAATTGCCCCGCTCGAGTAAACAAATTTTCCTAATCTTTCTGTTCAAGCGCCATCTAC | 0.372
40 | GATGATTGTTCTCCCAGCTGATGAATTATACTGGTCGAGTAAACAAATTTTCCTAATCTTTCTGTTCAAGCGCCATCTAC | 0.433
